Measurements from the supplement of paper PMC6089552.
Where “and” joins values, the source holds several entries; their conditions need not be identical. Equal values may be shown once. In all, about 3,200 compounds went through this assay and about 300 (9.4%) showed activity. This is a selection; strong and weak results do not stand in their true shares.

System: A673/TR/shEF
Assay: cell viability (LOESS-normalised, relative to median of negative controls) (log2 ratio); higher = more viable cells (less compound effect), active = hit call of the paper (over 3 MAD below the median)
Details: treatment time: 72 h
Outline: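 Viability of A673/TR/shEF Ewing sarcoma cells was determined by CellTiter-Glo luminescence. The cells, at 1,500 per well in 384-well plates, were grown with or without doxycycline from 24 h before compound addition to switch on EWS-FLI1 shRNA knockdown, then exposed for three days to library compounds at two or more concentrations or to DMSO controls. Signals were LOESS-corrected plate by plate, normalised to the negative-control median and log2-transformed.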

[1] = 0.25 µM, library screen: screen1, EWS-FLI1 expression: high (no doxycycline)
[2] = 0.25 µM, library screen: screen1, EWS-FLI1 expression: low (doxycycline-induced shRNA knockdown)
[3] = 2.5 µM, library screen: screen1, EWS-FLI1 expression: high (no doxycycline)
[4] = 2.5 µM, library screen: screen1, EWS-FLI1 expression: low (doxycycline-induced shRNA knockdown)
[5] = 0.103 µM, library screen: screen3, EWS-FLI1 expression: high (no doxycycline)
[6] = 0.103 µM, library screen: screen3, EWS-FLI1 expression: low (doxycycline-induced shRNA knockdown)
[7] = 0.308 µM, library screen: screen3, EWS-FLI1 expression: high (no doxycycline)
[8] = 0.308 µM, library screen: screen3, EWS-FLI1 expression: low (doxycycline-induced shRNA knockdown)
[9] = 0.926 µM, library screen: screen3, EWS-FLI1 expression: high (no doxycycline)
[10] = 0.926 µM, library screen: screen3, EWS-FLI1 expression: low (doxycycline-induced shRNA knockdown)
[11] = 2.8 µM, library screen: screen3, EWS-FLI1 expression: high (no doxycycline)
[12] = 2.8 µM, library screen: screen3, EWS-FLI1 expression: low (doxycycline-induced shRNA knockdown)
[13] = 8.3 µM, library screen: screen3, EWS-FLI1 expression: high (no doxycycline)
[14] = 8.3 µM, library screen: screen3, EWS-FLI1 expression: low (doxycycline-induced shRNA knockdown)
[15] = 25 µM, library screen: screen3, EWS-FLI1 expression: high (no doxycycline)
[16] = 25 µM, library screen: screen3, EWS-FLI1 expression: low (doxycycline-induced shRNA knockdown)
[17] = 0.25 µM, library screen: screen2, EWS-FLI1 expression: high (no doxycycline)
[18] = 0.25 µM, library screen: screen2, EWS-FLI1 expression: low (doxycycline-induced shRNA knockdown)
[19] = 2.5 µM, library screen: screen2, EWS-FLI1 expression: high (no doxycycline)
[20] = 2.5 µM, library screen: screen2, EWS-FLI1 expression: low (doxycycline-induced shRNA knockdown)

Measured: cell viability (log2)

O=C(O)CCC(=O)Nc1ccc(S(=O)(=O)Nc2nccs2)cc1
inactive: [1] 0.0404 | [2] 0.117 | [3] 0.0838 | [4] 0.0836

COc1cnc(NS(=O)(=O)c2ccc(N)cc2)nc1
inactive: [5] -0.0135 | [6] 0.073 | [1] 0.0544 | [2] 0.0896 | [7] -0.00761 | [8] 0.0337 | [9] 0.0887 | [10] -0.00887 | [3] 0.152 | [4] 0.136 | [11] 0.0694 | [12] 3.5e-05 | [13] -0.0117 | [14] 0.0542 | [15] 0.0313 | [16] 0.0493

Cc1cccc(CN2CCN(C(c3ccccc3)c3ccc(Cl)cc3)CC2)c1 (stereo not given)
inactive: [1] 0.0446 | [2] 0.0427 | [3] 0.139 | [4] 0.153

CNCCC(Oc1ccccc1OC)c1ccccc1 (stereo not given)
inactive: [17] 0.182 | [18] 0.0925 | [19] 0.0662 | [20] 0.0646

CC1CNCCN1S(=O)(=O)c1cccc2cnccc12 (stereo not given)
0.354: 0.025 µM, library screen: screen1, EWS-FLI1 expression: high (no doxycycline)
inactive: 0.025 µM, library screen: screen1, EWS-FLI1 expression: low (doxycycline-induced shRNA knockdown) 0.0557 | [2] 0.0236 | [17] 0.145 and 0.204 | [18] 0.0425 and 0.187 | [3] -0.0561 | [4] 0.0655 | [19] 0.0837 and 0.258 | [20] 0.0573 and 0.209 | 25 µM, library screen: screen1, EWS-FLI1 expression: low (doxycycline-induced shRNA knockdown) 0.112
0.301: [1]
active: 25 µM, library screen: screen1, EWS-FLI1 expression: high (no doxycycline) -0.155

O=NN(CCCl)C(=O)NC1CCCCC1
inactive: [5] 0.0432 | [6] 0.0116 | [7] 0.058 | [8] 0.121 | [9] 0.11 | [10] 0.0785 | [11] 0.0514 | [12] 0.0712 | [13] 0.0431 | [14] 0.0579 | [15] 0.0908 | [16] 0.065

CCCn1c(=O)c2[nH]c(-c3ccc(S(=O)(=O)O)cc3)nc2n(CCC)c1=O
inactive: [17] 0.268 | [18] 0.14 | [19] 0.145 | [20] 0.142

CC(C)CCC[C@@H](C)[C@H]1CC[C@H]2[C@@H]3C(=O)C=C4C[C@@H](O)CC[C@]4(C)[C@H]3CC[C@]12C
inactive: [1] 0.0534 | [2] 0.0186 | [3] 0.0996 | [4] -0.109

Cc1ccccc1N1C(=O)c2cc(S(N)(=O)=O)c(Cl)cc2NC1C (stereo not given)
inactive: [5] 0.0277 | [6] 0.0324 | [1] 0.0253 | [2] 0.102 | [17] 0.164 | [18] 0.107 | [7] 0.065 | [8] 0.0892 | [9] 0.0528 | [10] 0.0799 | [3] 0.0374 | [4] 0.071 | [19] 0.15 | [20] 0.121 | [11] 0.0296 | [12] 0.0636 | [13] 0.0226 | [14] 0.0707 | [15] 0.13 | [16] 0.129

COc1ccc(CN2CCN(Cc3ccc(OC)c(OC)c3OC)CC2)c(OC)c1
inactive: [1] 0.0664 | [2] 0.0443 | [3] 0.0638 | [4] 0.0995

O=C1N(c2ccccc2)c2ccccc2C1(Cc1ccncc1)Cc1ccncc1
active: [19] -0.0773
inactive: [17] 0.0704 | [18] 0.0498 | [20] 0.0762

[I-].[K+]
inactive: [5] -0.0757 | [6] 0.0133 | [7] 0.0608 | [8] -0.0377 | [9] 0.0917 | [10] 0.0201 | [11] 0.102 | [12] 0.0341 | [13] 0.0632 | [14] 0.0177 | [15] 0.122 | [16] 0.119

COc1ccc2c(c1)OCC(Cc1ccc(OC)c(OC(C)=O)c1)C2=O (stereo not given)
active: [3] -0.246

OCCOCCN1CCN(C(c2ccccc2)c2ccc(Cl)cc2)CC1 (stereo not given)
inactive: [1] 0.0742 | [2] 0.025 | [3] 0.108 | [4] 0.00756

CC(=O)O[C@H]1C[C@@H](OC(C)=O)C(C)(C)C2C[C@@H](O)[C@]3(C)C(CC[C@@]4(C)[C@H](c5ccoc5)OC(=O)[C@H]5O[C@]543)[C@]21C (stereo not given in full)
inactive: [1] 0.0347 | [2] 0.0768 | [3] 0.0354 | [4] 0.16

O=C(c1cc(-c2ccccc2)nc2ccccc12)N1CCCC1
inactive: [1] 0.0657 | [2] 0.0915 | [3] 0.129 | [4] -0.0754

Nc1cccc2c1CN(C1CCC(=O)NC1=O)C2=O (stereo not given)
inactive: [5] 0.0947 | [6] 0.0775 | [7] 0.159 | [8] 0.0747 | [9] 0.0472 | [10] 0.124 | [11] 0.085 | [12] 0.0648 | [13] 0.0408 | [14] 0.0766 | [15] 0.0878 | [16] 0.135

CC(=O)Nc1ccc(O)cc1
inactive: [1] 0.0821 | [2] 0.0336 | [3] 0.152 | [4] 0.104

CC(=O)Oc1c(C)c(C)c2c(c1C)CCC(C)(CCCC(C)CCCC(C)CCCC(C)C)O2 (stereo not given)
inactive: [1] 0.136 | [2] 0.286
0.288: [3]
0.357: [4]

COc1ccc(-c2cc(=O)c3c(O)cc(O[C@@H]4O[C@H](CO[C@@H]5O[C@@H](C)[C@H](O)[C@@H](O)[C@H]5O)[C@@H](O)[C@H](O)[C@H]4O)cc3o2)cc1
inactive: [1] 0.0703 | [2] 0.0696 | [3] 0.0879 | [4] 0.0994

C[C@H](C[C@@H](O)[C@@H]1OC1(C)C)[C@@H]1CC[C@]2(C)C3=CC[C@H]4C(C)(C)C(=O)CC[C@]4(C)[C@H]3CC[C@@]12C
inactive: [1] 0.0762 | [2] 0.064 | [3] 0.0491 | [4] 0.136

C=C1C(C)(C)[C@@]2(Cl)C(Cl)[C@]1(Cl)C(Cl)(Cl)C2(Cl)Cl (stereo not given in full)
inactive: [1] 0.0218 | [2] 0.106 | [3] 0.0433 | [4] 0.0358
